Among the data in patent publication US20220324876A1, “4-SUBSTITUTED PYRANO[3,4,b]PYRAZINE KAPPA AGONISTS FOR TREATING DRUG DEPENDENCY” (The Rockefeller University, priority 2019, published 2022) are IC50 values, retold here.

Read-outs that look alike come from different tables or passages of the source.

The target in this assay is kappa opioid receptor (KOP-R, hOPRK1) (Homo sapiens, UniProt P41145). Put plainly: biochemical.
Setting [1] is: Binding IC50 (nM), Table D, 1.0 nM [3H]U69,593, 60 min 30° C.

UniProt P41145, sequence (P41145 whole entry): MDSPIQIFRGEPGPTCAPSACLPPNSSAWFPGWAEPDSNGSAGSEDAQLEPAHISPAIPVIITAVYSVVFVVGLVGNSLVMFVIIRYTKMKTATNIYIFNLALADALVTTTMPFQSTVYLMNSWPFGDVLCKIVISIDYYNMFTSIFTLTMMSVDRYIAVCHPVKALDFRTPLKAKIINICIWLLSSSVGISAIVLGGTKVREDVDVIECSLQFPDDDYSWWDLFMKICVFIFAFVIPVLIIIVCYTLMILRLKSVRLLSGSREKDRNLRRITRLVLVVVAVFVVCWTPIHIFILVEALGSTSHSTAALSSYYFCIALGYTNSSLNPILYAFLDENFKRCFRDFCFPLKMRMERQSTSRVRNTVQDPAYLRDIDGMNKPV

In general, IC50 refers to the concentration that gives 50% inhibition. On to `O=C(Cc1ccc(Cl)c(Cl)c1)N1CCN(C(=O)c2ccno2)[C@@H]2COC[C@H](N3CCCC3)[C@H]21` (racemic) [rac-5A121], for which the IC50 under setting [1] turned out to be 34 nM. Consider `O=C(Cc1ccc(Cl)c(Cl)c1)N1CCN(C(=O)c2cc[nH]n2)[C@@H]2COC[C@H](N3CCCC3)[C@H]21` (racemic) [rac-5A122], for which the IC50 under setting [1] stood at 78 nM. On the same count and under the same terms, then `O=C(Cc1ccc(Cl)c(Cl)c1)N1CCN(C(=O)c2cn[nH]c2)[C@@H]2COC[C@H](N3CCCC3)[C@H]21` (racemic) [rac-5A123], with 159 nM. Compound `O=C(Cc1ccc(Cl)c(Cl)c1)N1CCN(C(=O)c2cnoc2)[C@@H]2COC[C@H](N3CCCC3)[C@H]21` (racemic) [rac-5A124] returned an IC50 of 433 nM. Under setting [1], `CN(C)S(=O)(=O)N1CCN(C(=O)Cc2ccc(Cl)c(Cl)c2)[C@H]2[C@H]1COC[C@@H]2N1CCCC1` (single isomer, unassigned) [Example 5A56A] gave an IC50 of 7.2 nM. `CN(C)S(=O)(=O)N1CCN(C(=O)Cc2ccc(Cl)c(Cl)c2)[C@H]2[C@H](N3CCCC3)COC[C@@H]21` (single isomer, unassigned) [Example 5A56B] had an IC50 under setting [1] of 113 nM. Same read-out and setting: in the case of `O=C(Cc1ccc(Cl)c(Cl)c1)N1CCN(CCO)[C@@H]2COC[C@H](N3CCCC3)[C@H]21` (single isomer, unassigned) [Example 5A74A] it was 15 nM; in that of `O=C(Cc1ccc(Cl)c(Cl)c1)N1CCN(CCO)[C@H]2COC[C@@H](N3CCCC3)[C@@H]21` (single isomer, unassigned) [Example 5A74B], 13 nM. In turn, `O=C(Cc1ccc(Cl)c(Cl)c1)N1CCN(CC2COC2)[C@@H]2COC[C@H](N3CCCC3)[C@H]21` (single isomer, unassigned) [Example 5A83A] displayed an IC50 under setting [1] of 117 nM.

`O=C(Cc1ccc(Cl)c(Cl)c1)N1CCN(CC2COC2)[C@H]2COC[C@@H](N3CCCC3)[C@@H]21` (single isomer, unassigned) [Example 5A83B] gave an IC50 under setting [1] of 10 nM.

As to `CC(C)(O)CN1CCN(C(=O)Cc2ccc(Cl)c(Cl)c2)[C@H]2[C@H]1COC[C@@H]2N1CCCC1` (single isomer, unassigned) [Example 5A90A], under setting [1], the IC50 came out at 28 nM. Under setting [1], `CC(C)(O)CN1CCN(C(=O)Cc2ccc(Cl)c(Cl)c2)[C@H]2[C@H](N3CCCC3)COC[C@@H]21` (single isomer, unassigned) [Example 5A90B] gave an IC50 of 11 nM. Still for that read-out and setting: then `O=C(Cc1ccc(Cl)c(Cl)c1)N1CCN(C(=O)CO)[C@@H]2COC[C@H](N3CCCC3)[C@H]21` (single isomer, unassigned) [Example 5A95A], with 46 nM; and `O=C(Cc1ccc(Cl)c(Cl)c1)N1CCN(C(=O)CO)[C@H]2COC[C@@H](N3CCCC3)[C@@H]21` (single isomer, unassigned) [Example 5A95B], with 308 nM. On the same count and under the same terms, then `O=C(Cc1ccc(Cl)c(Cl)c1)N1CCN(C(=O)C2(O)CCCC2)[C@@H]2COC[C@H](N3CCCC3)[C@H]21` (single isomer, unassigned) [Example 5A125A], with 258 nM. In the case of `O=C(Cc1ccc(Cl)c(Cl)c1)N1CCN(C(=O)C2(O)CCCC2)[C@H]2COC[C@@H](N3CCCC3)[C@@H]21` (single isomer, unassigned) [Example 5A125B], under setting [1], the IC50 worked out at 53 nM. The same measure, in the same setting: then `O=C(Cc1ccc(Cl)c(Cl)c1)N1CCN(C(=O)C2(O)CC2)[C@@H]2COC[C@H](N3CCCC3)[C@H]21` (single isomer, unassigned) [Example 5A126A], with 27 nM; and `O=C(Cc1ccc(Cl)c(Cl)c1)N1CCN(C(=O)C2(O)CC2)[C@H]2COC[C@@H](N3CCCC3)[C@@H]21` (single isomer, unassigned) [Example 5A126B], with 28 nM; and `O=C(Cc1ccc(Cl)c(Cl)c1)N1CCN(C(=O)C2(O)CCC2)[C@H]2COC[C@@H](N3CCCC3)[C@@H]21` (single isomer, unassigned) [Example 5A128B], with 19 nM. For `Cn1ccc(CN2CCN(C(=O)Cc3ccc(Cl)c(Cl)c3)[C@H]3[C@H]2COC[C@@H]3N2CCCC2)n1` (single isomer, unassigned) [Example 5A135A], the IC50 was 123 nM.

In the case of `Cn1ccc(CN2CCN(C(=O)Cc3ccc(Cl)c(Cl)c3)[C@H]3[C@H](N4CCCC4)COC[C@@H]32)n1` (single isomer, unassigned) [Example 5A135B], the IC50 was found to be 123 nM. Under setting [1], `O=C(Cc1ccc(Cl)c(Cl)c1)N1CCN(Cc2ccc(F)cc2)[C@@H]2COC[C@H](N3CCCC3)[C@H]21` (single isomer, unassigned) [Example 5A136A] showed an IC50 of 24 nM. `O=C(Cc1ccc(Cl)c(Cl)c1)N1CCN(Cc2ccc(F)cc2)[C@H]2COC[C@@H](N3CCCC3)[C@@H]21` (single isomer, unassigned) [Example 5A136B] returned an IC50 under setting [1] of 6.9 nM.

Consider `O=C(Cc1ccc(Cl)c(Cl)c1)N1CCN(CC2CCCO2)[C@@H]2COC[C@H](N3CCCC3)[C@H]21` (single isomer, unassigned) [Example 5A138A], for which the IC50 under setting [1] worked out at 101 nM. On the same count and under the same terms, then `O=C(Cc1ccc(Cl)c(Cl)c1)N1CCN(CC2CCCO2)[C@H]2COC[C@@H](N3CCCC3)[C@@H]21` (single isomer, unassigned) [Example 5A138B], with 73 nM.

`O=C(Cc1ccc(Cl)c(Cl)c1)N1CCN(CC2CCCO2)[C@@H]2COC[C@H](N3CCCC3)[C@H]21` (single isomer, unassigned) [Example 5A138C]: under setting [1], the IC50 is 31 nM.

As to `O=C(Cc1ccc(Cl)c(Cl)c1)N1CCN(CC2CCCO2)[C@H]2COC[C@@H](N3CCCC3)[C@@H]21` (single isomer, unassigned) [Example 5A138D], under setting [1], the IC50 stood at 87 nM. As for `O=C(Cc1ccc(Cl)c(Cl)c1)N1CCN(C(=O)C2(O)CCOC2)[C@@H]2COC[C@H](N3CCCC3)[C@H]21` (single isomer, unassigned) [Example 5A139A], the IC50 is 310 nM. The same measure, in the same setting: in the case of `O=C(Cc1ccc(Cl)c(Cl)c1)N1CCN(C(=O)C2(O)CCOC2)[C@H]2COC[C@@H](N3CCCC3)[C@@H]21` (single isomer, unassigned) [Example 5A139B] it was 1700 nM. Compound `O=C(Cc1ccc(Cl)c(Cl)c1)N1CCN(S(=O)(=O)CCO)[C@@H]2COC[C@H](N3CCCC3)[C@H]21` (single isomer, unassigned) [Example 5A140A] displayed an IC50 under setting [1] of 9.5 nM. On the same count and under the same terms, in the case of `O=C(Cc1ccc(Cl)c(Cl)c1)N1CCN(S(=O)(=O)CCO)[C@H]2COC[C@@H](N3CCCC3)[C@@H]21` (single isomer, unassigned) [Example 5A140B] it was 17 nM; in that of `COCCN1CCN(C(=O)Cc2ccc(Cl)c(Cl)c2)[C@H]2[C@H]1COC[C@@H]2N1CCCC1` (single isomer, unassigned) [Example 5A141A], 90 nM. As to `COCCN1CCN(C(=O)Cc2ccc(Cl)c(Cl)c2)[C@H]2[C@H](N3CCCC3)COC[C@@H]21` (single isomer, unassigned) [Example 5A141B], the IC50 under setting [1] was 21 nM. The same measure, in the same setting: then `O=C(Cc1ccc(Cl)c(Cl)c1)N1CCN(CCC2COC2)[C@@H]2COC[C@H](N3CCCC3)[C@H]21` (single isomer, unassigned) [Example 5A142A], with 88 nM; and `O=C(Cc1ccc(Cl)c(Cl)c1)N1CCN(CCC2COC2)[C@H]2COC[C@@H](N3CCCC3)[C@@H]21` (single isomer, unassigned) [Example 5A142B], with 1480 nM.

`O=C(Cc1ccc(Cl)c(Cl)c1)N1CCN(Cc2cccc(F)c2)[C@@H]2COC[C@H](N3CCCC3)[C@H]21` (single isomer, unassigned) [Example 5A145A] yielded a concentration for half-maximal inhibition (IC50) under setting [1] of 23 nM. As to `O=C(Cc1ccc(Cl)c(Cl)c1)N1CCN(Cc2cccc(F)c2)[C@H]2COC[C@@H](N3CCCC3)[C@@H]21` (single isomer, unassigned) [Example 5A145B], the IC50 under setting [1] was found to be 59 nM.

Take `COCCS(=O)(=O)N1CCN(C(=O)Cc2ccc(Cl)c(Cl)c2)[C@H]2[C@H]1COC[C@@H]2N1CCCC1` (single isomer, unassigned) [Example 5A146A]: under setting [1], the IC50 was found to be 42 nM. `COCCS(=O)(=O)N1CCN(C(=O)Cc2ccc(Cl)c(Cl)c2)[C@H]2[C@H](N3CCCC3)COC[C@@H]21` (single isomer, unassigned) [Example 5A146B] registered an IC50 under setting [1] of 17 nM. Under setting [1], `O=C(Cc1ccc(Cl)c(Cl)c1)N1CCN(Cc2ccon2)[C@@H]2COC[C@H](N3CCCC3)[C@H]21` [Example 5A86A] had a half-maximal inhibitory concentration (IC50) of 1.7 nM. On the same count and under the same terms, in the case of `O=C(Cc1ccc(Cl)c(Cl)c1)N1CCN(Cc2ccon2)[C@H]2COC[C@@H](N3CCCC3)[C@@H]21` [Example 5A86B] it was 23 nM; in that of `CC(O)CN1CCN(C(=O)Cc2ccc(Cl)c(Cl)c2)[C@H]2[C@H]1COC[C@@H]2N1CCCC1` (stereo partly drawn) [Example 5A89], 14 nM. For the compound `O=C(Cc1ccc(Cl)c(Cl)c1)N1CCN(CC2CCOC2)[C@@H]2COC[C@H](N3CCCC3)[C@H]21` (stereo partly drawn) [Example 5A93], the IC50 under setting [1] was 110 nM.

Consider `CC(C)(O)C(=O)N1CCN(C(=O)Cc2ccc(Cl)c(Cl)c2)[C@H]2[C@H]1COC[C@@H]2N1CCCC1` [Example 5A96A], for which the IC50 under setting [1] came to 31 nM. For the compound `CC(C)(O)C(=O)N1CCN(C(=O)Cc2ccc(Cl)c(Cl)c2)[C@H]2[C@H](N3CCCC3)COC[C@@H]21` [Example 5A96B], the IC50 under setting [1] was 63 nM.

As for `CC(F)(F)CN1CCN(C(=O)Cc2ccc(Cl)c(Cl)c2)[C@H]2[C@H]1COC[C@@H]2N1CCCC1` [Example 5A127A], the IC50 under setting [1] stood at 6.2 nM. Same read-out and setting: then `CC(F)(F)CN1CCN(C(=O)Cc2ccc(Cl)c(Cl)c2)[C@H]2[C@H](N3CCCC3)COC[C@@H]21` [Example 5A127B], with 20 nM.

Under setting [1], `O=C(Cc1ccc(Cl)c(Cl)c1)N1CCN(CC(O)c2ccon2)[C@@H]2COC[C@H](N3CCCC3)[C@H]21` (stereo partly drawn) [Example 5A137] showed a 50% inhibitory concentration (IC50) of 9.4 nM.
